Assay results published in PubChem BioAssay AID624417 (National Center for Advancing Translational Sciences (NCATS), 2012).
Among all 410,000 compounds or so, about 6,400 (1.6%) were called active. Inconclusive results, whose numbers are uncertain, are shown with a selection of clear calls. Calls follow the shape of the dose curve; as a rule, active = well fitted inhibition curve with a large enough effect; inconclusive = small, poorly fitted or top-dose-only effect; inactive = no such curve, though single readings can be large or run the other way. Potencies beside an inconclusive call are fits to weak or partial responses and may not hold up.

The compounds below were run against Glucagon-like peptide 1 receptor (Homo sapiens) (UniProt P43220) (assay: qHTS of GLP-1 Receptor Inverse Agonists (Inhibition Mode)). Conditions: HEK293 GLP-1R CRE-luciferase, luminescence, 24 h, GLP-1R form is constitutively active; activity change, negative = inhibition: at 38.3 µM (top of the series) unless noted.
UniProt P43220, sequence (P43220 whole entry, looked up): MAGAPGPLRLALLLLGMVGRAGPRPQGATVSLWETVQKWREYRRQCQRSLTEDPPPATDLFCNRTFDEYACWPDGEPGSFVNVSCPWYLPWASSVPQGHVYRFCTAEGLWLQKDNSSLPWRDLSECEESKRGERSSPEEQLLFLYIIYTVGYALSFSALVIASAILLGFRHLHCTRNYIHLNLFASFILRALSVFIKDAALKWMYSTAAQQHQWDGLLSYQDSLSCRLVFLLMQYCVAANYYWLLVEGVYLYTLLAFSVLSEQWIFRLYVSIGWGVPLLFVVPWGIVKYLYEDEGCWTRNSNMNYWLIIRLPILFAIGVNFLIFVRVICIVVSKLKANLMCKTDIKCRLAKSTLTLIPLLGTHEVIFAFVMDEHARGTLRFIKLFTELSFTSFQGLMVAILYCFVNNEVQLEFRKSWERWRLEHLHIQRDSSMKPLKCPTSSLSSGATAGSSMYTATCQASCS
How it was run: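 Seeding at 200 cells/uL, 12 h culture, 24 hr compound treatment, then luciferase reagent and a luminescence read; cells are HEK293 stably expressing a constitutively active GLP-1R plus cAMP-responsive luciferase.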
% is scaled to controls: 0 for no effect and ±100 for the full control effect; potency is read from the fitted curve at half-maximal effect; tags tell the direction and shape of the fitted curve.
Also: nearly all actives have a fitted effect of over 55% in size.

Potency, inconclusive:
O=C(Nc1cccc(S(=O)(=O)NC2=NCCCCC2)c1)c1cc(-c2ccco2)nc2ccccc12 10 µM [inhibitor, single point]
CCC[C@H](CN[C@@H](CNC)[C@H](C)CC)NCCc1cc(C(F)(F)F)cc(C(F)(F)F)c1 12.6 µM [inhibitor, single point]
O=C(c1cccc(Cl)c1)N1CCC(=O)N([C@H](COCc2ccccc2)Cc2ccccc2)CC1 10 µM [inhibitor, partial curve]
COc1ccc(NC(C)C(=O)N/N=C/c2c(O)ccc3ccccc23)cc1 (centres undefined) 6.31 µM [inhibitor, partial curve, poor fit]
O=C(N/N=C/c1ccccc1O)C1(O)c2ccccc2-c2ccccc21 11.2 µM [inhibitor, partial curve, poor fit]
CCCCNCCOCCOc1ccc(C)cc1Br 8.91 µM [inhibitor, partial curve, poor fit]
Cc1onc(-c2ccccc2)c1C(=O)OCCOc1ccc([N+](=O)[O-])cc1[N+](=O)[O-] 10 µM [inhibitor, partial curve, poor fit]
COc1ccccc1NC(=O)c1cccc(S(=O)(=O)N2CCCCCC2)c1 28.2 µM [inhibitor, single point]
O=C(c1ccc2c(c1)N(Cc1ccc(F)cc1)C(=O)c1ccccc1S2=O)N1CCC(Cc2ccccc2)CC1 (centres undefined) 28.2 µM [inhibitor, single point]
O=[N+]([O-])c1ccc(N/N=C\c2cccn2-c2ccccc2)nc1 12.6 µM [inhibitor, partial curve, poor fit]
CCCc1cc(NCCCN(C)C)n2c(nc3ccccc32)c1C#N 8.91 µM [inhibitor, partial curve, poor fit]
Cc1ccc(CSCCNC(=O)CN(c2ccccc2)S(C)(=O)=O)cc1 11.2 µM [inhibitor, single point]
CC(NC(=O)c1ccc2ccccc2n1)c1ccccc1 (centres undefined) 12.6 µM [inhibitor, single point]
CCOc1ccc(OCc2ccc(C(=O)O)o2)cc1 6.31 µM [inhibitor, partial curve, poor fit]
CCNc1nc(NC(C)C)nc(N(C#N)CCOc2ccc(Cl)cc2Cl)n1 12.6 µM [inhibitor, partial curve, poor fit]
Cc1c(CCOC(=O)C23CC4CC(CC(C4)C2)C3)sc[n+]1CC#N 20 µM [inhibitor, partial curve, poor fit]
CCCCOc1ccc(C(=O)NCCOc2cccc(OC)c2)cc1 10 µM [inhibitor, partial curve, poor fit]
Cc1ccc(S(=O)(=O)NCCC(=O)Nc2cc(F)ccc2C)cc1C 12.6 µM [inhibitor, single point]
O=C(c1ccc(Cn2cnnn2)cc1)N1CCCC(Nc2ccc(F)c(F)c2)C1 (centres undefined) 0.891 µM [inhibitor, full curve, poor fit]
CN(Cc1ccccc1O)CC1CCCN(CCc2ccc(Cl)cc2)C1 (centres undefined) 12.6 µM [inhibitor, partial curve, poor fit]
CCOC(=O)N1CCN(C(=O)COc2ccc3ccccc3c2Br)CC1 28.2 µM [inhibitor, single point]
Cc1ccc(CCNS(=O)(=O)c2ccc3c(c2)N(C)CCO3)cc1 31.6 µM [inhibitor, partial curve, poor fit]
COc1cccc(/C=N/NC(=O)c2cc(-c3cccn3C)n[nH]2)c1O 3.16 µM [inhibitor, partial curve, poor fit]
Cc1ccccc1NC(=O)C(C)c1cccc(C(=O)c2ccccc2)c1 (centres undefined) 7.94 µM [inhibitor, partial curve, poor fit]
Cc1ccc(C(=O)N2c3ccccc3OCC2C)cc1 (centres undefined) 22.4 µM [inhibitor, single point]
Cc1ccc(CN2CCC(C(=O)Nc3cccc(-c4cccc(F)c4)c3)CC2)o1 28.2 µM [inhibitor, single point]
COC(=O)c1cccc(C23CC4(C2)[C@H](CN(Cc2cccnc2)[C@@H]4c2ccccc2)C3c2ccc(C(F)(F)F)cc2)c1 (some centres undefined) 3.16 µM [inhibitor, full curve, poor fit]
COc1cc(/C=N\NC(=O)c2ccccc2F)ccc1Oc1ccc([N+](=O)[O-])cn1 2.51 µM [inhibitor, full curve]
CC(NC(=O)CN1C(=O)NC(Cc2ccccc2)(Cc2ccccc2)C1=O)C12CC3CC(CC(C3)C1)C2 (centres undefined) 7.08 µM [inhibitor, partial curve, poor fit]

Potency, inactive:
CCc1ccc(CNC(=O)c2ccc(NC(=O)N3CCCCc4ccccc43)cc2)cc1
CCC(=O)N(C)CCc1cc2c(c(OC)c1/C=N/NC(=O)c1ccc(Br)cc1)OCO2
Cc1c(C(=O)N(Cc2nccn2C)C(C)C)oc2c(F)cccc12
CCOc1ccc(NC(=S)c2ccc3ccccc3n2)cc1
CCOC(=O)c1c(C)[nH]c(C(=O)OCC(=O)Nc2ccc(Cl)cn2)c1C
CSc1cccc(Nc2nc3c(S(=O)(=O)c4ccccc4)nnn3c3ccc(Cl)cc23)c1
Cc1ccc(CCNC(=O)Cn2nc(-c3ccc(C)cc3)ccc2=O)cc1
Cn1cccc1C(=O)C(=O)Nc1cccc(Cl)c1Cl

Potency, active:
CCCC[C@H](CC(=O)c1ccccc1)[C@@H](OC(C)=O)C(=O)Oc1c(C(C)C)cccc1C(C)C 3.55 µM

Activity change, negative = inhibition, inconclusive:
COc1ccc(-n2cc(-c3ccccc3)c3c(NN4CCOCC4)ncnc32)cc1 -50.6% [inhibitor] [at 7.66 µM]
